The structures appear in SMILES notation. The whole screen tested about 52,000 compounds, of which about 4,300 (8.3%) were called active. No stated cut-off is given here; in the data, active means survival mostly below about 52% (no sharp cut-off); inactive means mostly above about 56%. Some of the results follow.

For the experiment, the system named is DeltatarO mutant. The experiment can be described thus: S. aureus survival, RN4220 and DeltatarO strains – OD600, teichoic acid synthesis inhibitors, primary screen (AID 463173). As to conditions: S. aureus RN4220 wild type/DeltatarO growth, OD600, 18 h, hits give low values, screened at 18.75 µg/mL (by protocol).
`CCc1ccc(CNC(=O)c2cnc3sc4cc(OC)ccc4n3c2=O)cc1`: the survival was inactive: 84%.
With `CCCn1c2ccccc2c2cnn(CC(=O)N3CCC(C)CC3)c(=O)c21` the figure was inactive: 76%.
With `O=C(CN(CC1CCCO1)S(=O)(=O)c1ccc(S(=O)(=O)N2CCOCC2)cc1)Nc1ccccc1` (stereo not drawn) the figure was inactive: 89%.
Turning to `O=C(NCc1ccccc1F)c1ccc(CN2CC(=O)N3CCCCC3C2=O)cc1` (stereo not drawn), the survival is inactive: 73%.
With `Cc1ccc(NCc2nnc(SCC(=O)O)n2-c2cccc(Cl)c2)cc1` the figure was inactive: 106%; with `CC1=C(C#N)C(c2cccc(O)c2)C2=C(CC(c3ccccc3)CC2=O)N1` (stereo not drawn), inactive: 94%.
On to `Cc1cc(C)c(NC(=O)Cn2c(=O)n(Cc3ccc4c(c3)OCO4)c(=O)c3ccc(C(=O)NC4CCCCC4)cc32)c(C)c1`, for which the survival is inactive: 92%.
As to `C=Cc1ccc(Cn2nc(-c3ccc(C)c(S(=O)(=O)N(CC)CC)c3)ccc2=O)cc1`, the survival is inactive: 53%.
For the compound `COc1ccc2cc(-c3nc4ccc(C(=O)O)cc4[nH]3)c(=O)oc2c1`, the survival was inactive: 57%.
On to `COCCCNC(=O)CCCCn1c(=O)c2ccccc2n(CC(=O)Nc2ccc(C)cc2C)c1=O`, for which the survival is inactive: 94%.
With `Cn1nc(-c2ccc(C(=O)Nc3ccc(F)cc3)cc2)c2ccccc2c1=O` the figure was inactive: 61%; with `Cc1cccn2c(=O)c3cc(C#N)c(=O)n(-c4nnc(SCc5ccccc5F)s4)c3nc12`, inactive: 70%.
With `COCCNC(=O)CSc1nc2cc3c(cc2c(=O)n1CCCCCC(=O)NCc1ccc(OC)cc1)OCO3` the figure was inactive: 67%.
To `COc1ccc(CNC(=O)c2ccc3c(c2)nc2n3CCC(C)C2)c(OC)c1` (stereo not drawn) belongs inactive: 99%; to `CC(C)c1ccc(S(=O)(=O)NCc2ccc3c(c2)CCN3C(=O)c2ccccc2)cc1`, inactive: 87%.
As to `CCOc1ccccc1NC(=O)Cn1nnc2sc(-c3ccccc3)cc2c1=O`, the survival is active: 39%.
To `Cc1cccc(-c2nnc(N(C(=O)C3CCC3)C(C)C)s2)c1` belongs inactive: 113%; to `COc1ccc(Nc2ncc3c(n2)CCN(Cc2cc(Br)cs2)C3)c(OC)c1`, inactive: 75%.
Turning to `CCC1/C(=N\O)CC(c2ccco2)NC1c1ccco1` (stereo not drawn), the survival was inactive: 84%.
As to `CCOC(=O)c1ccc(N2CCN(c3cc(C)ccc3C)CC2)c(NC(=O)Nc2ccccc2)c1`, the survival was inactive: 79%.
With `COc1ccccc1NC(=O)c1cc2c(=O)oc3ccc(C)cc3c2s1` the figure was inactive: 63%; with `O=C(O)CSc1c2c(nc3cc(C(=O)Nc4ccc(F)c(Cl)c4)ccc13)CCC2`, inactive: 88%.
For the compound `CN1CCN(C(=O)/C(=C/c2ccc(N(C)C)cc2)NC(=O)c2ccccc2)CC1`, the survival was inactive: 78%.
`Cc1ccc(NC(=O)CSc2nc3c(oc4ccccc43)c(=O)n2-c2ccc(F)cc2)c(C)c1`: the survival was inactive: 67%.
To `Cc1sc(N)nc1-c1cccs1` belongs inactive: 96%; to `O=C(Nc1ccc(C(F)(F)F)cc1)C1CCCN(c2cnccn2)C1` (stereo not drawn), inactive: 81%; to `CC1CN(C(=O)Nc2ccc(C(=O)NCc3cccc(F)c3)cc2)c2ccccc2S1` (stereo not drawn), inactive: 57%.
With `O=c1c(S(=O)(=O)c2ccccc2)cn(Cc2ccccc2)c2cc(N3CCOCC3)c(F)cc12` the figure was inactive: 85%.
With `CC(C(=O)NCc1ccccc1F)n1ccc2cc(S(=O)(=O)N3CCCC3)ccc21` (stereo not drawn) the figure was inactive: 60%; with `COc1ccc(Br)cc1C(=O)Nc1nc2ccc(F)cc2s1`, inactive: 80%; with `CCOc1ccccc1NC(=O)c1c(NC(=O)c2cccc(C)c2)sc2c1CCCC2`, inactive: 76%.
Consider `CCc1ccccc1NC(=O)Nc1cc(C(=O)NCc2ccc(C)cc2)ccc1N1CCCC1`, for which the survival is inactive: 113%.
On to `CCOC(=O)c1ccccc1NC(=O)Nc1cc2c(cc1N1CCCCC1)n(C)c(=O)n2C`, for which the survival is inactive: 76%.
To `Cc1nn(-c2ccc(F)cc2)c(-n2cccc2)c1C(=O)NCCCN1CCN(c2ccccc2F)CC1` belongs inactive: 78%.
Consider `CCOc1ccc(CNC(=O)CCS(=O)(=O)c2cc3c(cc2Cl)NC(=O)CO3)cc1OC`, for which the survival is inactive: 74%.
For the compound `O=C(Nc1ccc(N2CCC(c3ccccc3)C2)c(C(=O)O)c1)c1ccc(Cl)cc1` (stereo not drawn), the survival was inactive: 60%.
With `COc1cccc(NC(=O)CCc2c(C)nc3c4cccnc4nn3c2C)c1` the figure was inactive: 90%; with `CCOc1ccc(Oc2nc(NCC(C)C)nc(NC(C)(C)C)n2)nn1`, inactive: 72%; with `CCC(=O)Nc1ccc(Cl)c(NC(=O)c2cc3ccccc3o2)c1`, inactive: 67%.
For `COc1ccccc1OCC(=O)N(Cc1ccc(Cl)cc1)CC1CCCO1` (stereo not drawn), the survival was inactive: 74%.
`CCc1cccc(CC)c1NC(=O)c1ccc2c(c1)CCN2S(=O)(=O)c1ccccc1`: the survival is inactive: 60%.
With `Cc1cccc(NC(=O)CN2C(=O)c3cccnc3Oc3ccc(Cl)cc32)c1C` the figure was inactive: 73%; with `CC1=Nc2cc(C(=O)NC3CCCC3)ccc2Sc2ccc(C)cc21`, inactive: 59%; with `Cc1nn(-c2nc(-c3ccc(F)cc3)cc(C(F)(F)F)n2)c(C)c1Br`, active: -2%.
Consider `COc1ccc(NC(=O)Cn2c(C)cc3ccccc3c2=O)c(OC)c1`, for which the survival is inactive: 59%.
On to `COc1cccc(C(=O)Nc2ccccc2C(=O)OCc2cc(=O)n3c(C)csc3n2)c1`, for which the survival is inactive: 100%.
With `CC1=C(c2ccc(C)c(C)c2)S(=O)(=O)N=C1N1CCC(C(=O)NCCc2ccco2)CC1`, the survival was inactive: 72%.
Regarding `Cc1ccc(-c2cc(C(=O)N3CCN(S(=O)(=O)c4ccc(Br)cc4)CC3)[nH]n2)cc1C`, the survival was inactive: 80%.
For `CS(=O)(=O)N1CCc2cc(C(=O)NCCc3ccccc3)ccc21`, the survival is inactive: 94%.
To `CC(C)CCNC(=O)Nc1ccc2c(c1)N(C)C(=O)c1ccccc1S2` belongs inactive: 89%.
To `Cc1ccc(Cc2cnc(I)c(O)c2)cc1` belongs inactive: 80%.
On to `COC(=O)CS(=O)(=O)c1nc2ccccc2nc1N1CCCCC1`, for which the survival is inactive: 52%.
With `COCCCNC(=O)CN1C(=O)COc2ccc(S(=O)(=O)N3CCCC3)cc21` the figure was inactive: 79%; with `COc1cccc(NC(=O)Cn2cnc3c(nc4n3CCCCC4)c2=O)c1`, inactive: 76%; with `COc1ccc(C(=O)NCCn2cc(SCC(=O)NCCc3ccc(OC)c(OC)c3)c3ccccc32)cc1`, inactive: 74%.
For `Cc1ccc(NC(=O)Cn2c(=O)c3cc(Cl)ccc3n3nncc23)cc1`, the survival is inactive: 75%.
`Cc1n[nH]c(C)c1S(=O)(=O)N(CC(=O)NC(C)c1ccccc1)c1ccc(C(C)C)cc1` (stereo not drawn): the survival is active: 54%.
Consider `COC(=O)C1=NNC2C(=O)N(C3CCCCC3)C(=O)C12` (stereo not drawn), for which the survival is inactive: 79%.
With `Cc1ccccc1CNC(=O)C(=O)NCC(c1ccco1)S(=O)(=O)c1ccccc1` (stereo not drawn), the survival is inactive: 92%.
With `COc1ccc(C(=O)Nc2nnc(S(=O)(=O)N(C)c3ccc(Cl)cc3)s2)cc1OC` the figure was inactive: 83%; with `Cc1ccc(CCNC(=O)c2cn(C)c3ccc(S(=O)(=O)N4CCCCC4)cc3c2=O)cc1`, inactive: 71%; with `Cc1ccc2[nH]c(CSc3nnc(NC(=O)c4ccccc4C)s3)cc(=O)c2c1`, inactive: 83%.
For `O=C1CCCN1c1ccc(S(=O)(=O)NCCOc2ccccc2Cl)cc1`, the survival is inactive: 97%.
Turning to `CCC(=O)NCC(c1ccc2c(c1)OCO2)N1CCN(c2ccccc2)CC1` (stereo not drawn), the survival was inactive: 124%.
Turning to `COc1ccc(-c2[nH]nc3nc(-c4cc(OC)c(OC)c(OC)c4)cc(C(=O)O)c23)cc1`, the survival was inactive: 90%.
With `Cc1nc2ccccc2c(=O)n1-c1ccc(NC(=O)c2ccc([N+](=O)[O-])cc2)cc1`, the survival is inactive: 71%.
For `COc1ccc(N2CCN(C(=O)CCc3c(C)nc4cc(-c5ccc(Cl)cc5)nn4c3C)CC2)cc1`, the survival is inactive: 116%.
To `Cc1ccc2cc(CNCc3cccnc3)c(=O)[nH]c2c1` belongs inactive: 97%; to `CCOc1ccc(NCc2cccn2-c2nnc(N3CCC(C(=O)NCCc4ccc(OC)c(OC)c4)CC3)s2)cc1`, inactive: 87%.
To `O=C(CN1CCOCC1)N(c1ccccc1)c1ccc2ccccc2c1` belongs inactive: 84%; to `CCc1ccc(C2CC(=O)Nc3c2c(C)nn3-c2nc(C)cc(C)n2)cc1` (stereo not drawn), inactive: 57%.
As for `CCOc1ccc(-c2nnc(SCC(=O)NCc3ccccc3)nc2-c2ccc(OCC)c(OC)c2)cc1OC`, the survival is inactive: 80%.
With `Cc1ccc(C)c(N2CCN(S(=O)(=O)c3c(C)nc4sccn4c3=O)CC2)c1` the figure was inactive: 92%; with `CCOc1ccccc1NC(=O)N1CCN(Cc2nc3ccc(C)cc3o2)CC1`, inactive: 76%.
With `C/C=C/C(=O)Oc1ccc(Cl)cc1` the figure was inactive: 88%; with `CCCCOc1cccc(C(=O)Nc2ccc3oc(-c4cccnc4)nc3c2)c1`, active: 46%; with `Cc1cc(C)cc(-n2c(SCC(N)=O)nc3c(oc4ccccc43)c2=O)c1`, inactive: 97%.
To `COc1cccc(Nc2c3c(nc4nncn24)CCC3)c1` belongs inactive: 71%; to `CCOc1ccccc1NC(=O)Cn1cnc2sc(C)c(S(=O)(=O)N3CCC(C)CC3)c2c1=O`, inactive: 65%; to `O=C(NCc1ccccc1Cl)c1cc2ccccc2o1`, inactive: 74%.
Regarding `COc1cc(OC)cc(C(=O)Nc2ccc3c(c2)N(C2CCCC2)C(=O)c2ccccc2S3)c1`, the survival was inactive: 119%.
To `O=C(CSc1nc2ccccc2nc1Cc1ccccc1)N1CCCCC1` belongs inactive: 83%; to `CCc1cccc(NC(=O)CCS(=O)(=O)c2cc(Br)cc3c2N(C(C)=O)CC3)c1`, inactive: 144%; to `COc1cc(-c2nc3ncccn3c2Nc2ccc(C)cc2C)ccc1O`, inactive: 132%.
With `CC(c1ccccc1F)n1cc(C(=O)NCCCn2ccnc2)nn1` (stereo not drawn) the figure was inactive: 96%.
Regarding `Cc1ccc(C)c(NC(=O)CSc2nc(=O)n(Cc3ccccn3)c3c2CCC3)c1`, the survival was inactive: 80%.
With `Cc1cccc(N2CCN(S(=O)(=O)c3ccc(F)c(C(=O)Nc4ccc(C(C)C)cc4)c3)CC2)c1C` the figure was inactive: 94%.
`CCOc1ccc(C(=O)C(CC(CN2CCOCC2)C(=O)c2ccc(OCC)cc2)CN2CCOCC2)cc1` (stereo not drawn): the survival was inactive: 104%.

The values above are taken from PubChem BioAssay AID463173 (ICCB-Longwood Screening Facility, Harvard Medical School, 2010).
